From PubChem BioAssay AID2100 (National Center for Advancing Translational Sciences (NCATS), 2009)
Values joined by “and” are separate entries in the source; they are usually repeats but may differ in a detail not shown here. Equal entries are not always repeated. The campaign covered roughly 300,000 compounds. About 1,200 (0.4%) were called active. Inconclusive means that the source gave no clear call. Such entries were picked first, then a sample of the others. Calls come from the whole dose curve; as a rule, active = well fitted inhibition curve with a large enough effect; inconclusive = small, poorly fitted or top-dose-only effect, or another doubt; inactive = no such curve, though single readings can be large or run the other way. Potencies of inconclusive entries are doubtful fits and often do not repeat.

Molecular target: Lysosomal alpha-glucosidase (Homo sapiens) (UniProt P10253)
Test: qHTS Assay for Inhibitors and Activators of Human alpha-Glucosidase Cleavage of Glycogen
Conditions: recombinant GAA, glycogen substrate, Amplex Red glucose oxidase fluorescence; series mostly up to 76.4 µM
How it was run: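 Natural-substrate format: glycogen cleavage by 4 nM human enzyme, glucose read by Amplex Red coupling (Ex 573, Em 610 nm). Normalized to enzyme and no-enzyme controls.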
Potency is the fitted concentration of half-maximal effect.

Q: `COc1ccc(Nc2c(-c3ccccn3)nc3ccc(Cl)cn23)cc1` was tested. Which Potency did it give?
A: Its Potency is inconclusive: 2.82 µM [inhibitor, full curve].

Q: How did the Potency turn out when `c1ccc2c3c(cc(N4CCOCC4)c2c1)OC1(N2CCOCC2)CCCCC1O3` (stereo not given) was run?
A: The Potency was inconclusive: 11.1 µM [inhibitor, partial curve].

Q: `Cc1cccc(-n2c(O)c(C=NCCCN3CCOCC3)c3ccccc3c2=O)c1` was tested. Which Potency did it give?
A: The Potency was inconclusive: 39.8 µM [inhibitor, single point].

Q: Which Potency does the source give for `O=C(NNC(=O)C1[C@H]2CCCC[C@@H]12)c1ccc(=O)oc1` (stereo not given in full) here?
A: Its Potency is inconclusive: 39.8 µM [inhibitor, partial curve].

Q: `COc1cc(OC)c(N(C)C(=O)c2sc3nc4n(c(=O)c3c2C)CCCC4)cc1Cl` was tested. Which Potency did it give?
A: The Potency was “inactive”.

Q: `Oc1ccc(N=Cc2ccc(OCc3ccccc3)cc2)cc1` was tested. Which Potency did it give?
A: Its Potency is inconclusive: 50.1 µM [activator, single point].

Q: For `COc1ccc2[nH]cc(C(O)CN3CCN(c4ccccc4)CC3)c2c1` (stereo not given), which Potency is on record?
A: Its Potency is inconclusive: 35.5 µM [inhibitor, partial curve].

Q: How did the Potency turn out when `Cc1ccc2nc(-c3cccnc3)c(Nc3ccccc3C)n2c1` was run?
A: Its Potency is inconclusive: 8.91 µM [inhibitor, full curve] and inconclusive: 12.6 µM [inhibitor, partial curve].

Q: With `CC1Cc2nc(SCC(=O)NCc3ccco3)n(Cc3ccccc3)c(=O)c2S1` (stereo not given) as the compound, how does the Potency read?
A: Its Potency is “inactive”.

Q: Which Potency does the source give for `CC(C)c1ccc(OCC(=O)N(Cc2ccc(N(C)C)cc2)C2CCS(=O)(=O)C2)cc1` (stereo not given) here?
A: Its Potency is inconclusive: 28.2 µM [inhibitor, partial curve].

Q: With `Cc1ccc(Nc2c(-c3ccccn3)nc3cccc(C)n23)cc1` as the compound, how does the Potency read?
A: Its Potency is inconclusive: 3.98 µM [inhibitor, full curve].

Q: For `O=C(CSc1nnc2ccccn12)Nc1ccc2c(c1)OCCO2`, which Potency is on record?
A: Its Potency is inconclusive: 7.08 µM [inhibitor, single point].

Q: With `NC(=S)N/N=C/c1c[nH]c2ccc(OCc3ccccc3)cc12` as the compound, how does the Potency read?
A: Its Potency is inconclusive: 44.7 µM [inhibitor, partial curve].

Q: For `CCOC(=O)c1c(NC(=S)NC)sc2c1CCCC2`, which Potency is on record?
A: The Potency was “inactive”.

Q: How did the Potency turn out when `CC1=NN(C(=O)c2ccco2)C(O)(c2ccccc2)C1` (stereo not given) was run?
A: The Potency was inconclusive: 50.1 µM [inhibitor, single point].

Q: With `Cc1ccc(N/N=C/c2ccc(N3CCOCC3)cc2)cc1C` as the compound, how does the Potency read?
A: Its Potency is inconclusive: 24.9 µM [inhibitor, partial curve].

Q: Which Potency does the source give for `Cc1ccc(/C(O)=C/c2nc3cc(C)ccc3oc2=O)cc1` here?
A: Its Potency is active: 15.8 µM.

Q: How did the Potency turn out when `Nc1nc2c(s1)COc1ccccc1-2` was run?
A: The Potency was inconclusive: 24.9 µM [inhibitor, partial curve].

Q: How did the Potency turn out when `Fc1cccc(Cl)c1/C=N/Nc1ccccn1` was run?
A: The Potency was “inactive”.

Q: With `CCCCn1c(O)c(/C=C/C=C/C=Nc2ccccc2)sc1=S` as the compound, how does the Potency read?
A: The Potency was inconclusive: 50.1 µM [activator, single point].

Q: `COC(=O)C1=CN(Cc2ccccc2)C=C(C(=O)OC)C1c1ccc(O)c(OC)c1` was tested. Which Potency did it give?
A: The Potency was inconclusive: 50.1 µM [inhibitor, single point].

Q: How did the Potency turn out when `O=C(CCc1ccccc1)NNC(=S)Nc1ccc(F)cc1` was run?
A: The Potency was inconclusive: 31.6 µM [inhibitor, partial curve].

Q: How did the Potency turn out when `O=C(O)c1ccccc1-c1ccccc1C(=O)Nc1ccc(F)cc1` was run?
A: Its Potency is “inactive”.

Q: For `C=CCn1c(-c2c[nH]c3ccccc23)n[nH]c1=S`, which Potency is on record?
A: Its Potency is inconclusive: 39.8 µM [inhibitor, single point].

Q: Which Potency does the source give for `CCOC(=O)C(=NC(C)CC)NNc1ccc(Br)cc1` (stereo not given) here?
A: Its Potency is inconclusive: 24.9 µM [inhibitor, single point].

Q: For `COc1ccc(N2C(=O)CC(Sc3n[nH]c(-c4cccc(C)c4)n3)C2=O)cc1` (stereo not given), which Potency is on record?
A: The Potency was inconclusive: 22.4 µM [inhibitor, partial curve].

Q: Which Potency does the source give for `COCCNC(=S)NNC(=O)c1ccco1` here?
A: Its Potency is inconclusive: 14 µM [inhibitor, partial curve].

Q: `CCOC(=O)c1ccc(NC(=O)Nc2cc3c(cc2N2CCCC2)n(C)c(=O)n3C)cc1` was tested. Which Potency did it give?
A: Its Potency is inconclusive: 3.55 µM [inhibitor, full curve].

Q: With `COC(=O)c1[nH]c2ccc(Cl)cc2c1NC(=O)Oc1ccccc1` as the compound, how does the Potency read?
A: The Potency was active: 24.9 µM.

Q: With `O=C(c1cnccn1)N1CCc2ccccc2C1` as the compound, how does the Potency read?
A: Its Potency is inconclusive: 39.5 µM [inhibitor, single point].

Q: For `Cc1cc2ccccn2c1C(C[N+](=O)[O-])c1ccc(N(C)C)cc1` (stereo not given), which Potency is on record?
A: The Potency was inconclusive: 28.2 µM [inhibitor, partial curve].

Q: How did the Potency turn out when `N#C/C(=C/c1cn(-c2ccccc2)nc1-c1cccc(OCc2ccc(F)cc2)c1)C(=O)NCCCn1ccnc1` was run?
A: The Potency was “inactive”.

Q: How did the Potency turn out when `COc1cc(CN2CCN(C(=O)c3cccc4ccccc34)CC2)cc(OC)c1O` was run?
A: The Potency was inconclusive: 14.1 µM [inhibitor, partial curve].

Q: For `Cc1ccc(O)c(NC(=O)c2ccccc2-c2ccccc2C(=O)O)c1`, which Potency is on record?
A: Its Potency is inconclusive: 20 µM [inhibitor, partial curve].

Q: `CC1CCN(c2oc(/C=C/c3ccc(F)cc3)nc2C#N)CC1` was tested. Which Potency did it give?
A: Its Potency is “inactive”.

Q: With `COc1ccccc1NC(=O)C1=C(C)Nc2nc(SCc3ccccc3)nn2C1c1cccnc1` (stereo not given) as the compound, how does the Potency read?
A: Its Potency is “inactive”.

Q: With `Cc1ccc(-c2cn(-c3ccccc3F)c(=S)[nH]2)cc1` as the compound, how does the Potency read?
A: The Potency was inconclusive: 35.5 µM [inhibitor, single point].

Q: How did the Potency turn out when `O=[N+]([O-])c1ccc(S(=O)(=O)NNC(=S)NCCc2ccccc2)cc1` was run?
A: Its Potency is inconclusive: 14.1 µM [inhibitor, partial curve].

Q: How did the Potency turn out when `O=S(=O)(NCC(Nc1ccc(Cl)cc1)c1ccccc1)c1ccccc1` (stereo not given) was run?
A: Its Potency is inconclusive: 25.1 µM [inhibitor, partial curve].

Q: How did the Potency turn out when `COc1cc(/C=N/NC(=O)c2cc(-c3ccccc3)sc2N)cc(OC)c1OC` was run?
A: The Potency was inconclusive: 8.91 µM [inhibitor, partial curve].

Q: With `COC(CC(=O)NNC(=S)Nc1ccc(Cl)cc1)OC` as the compound, how does the Potency read?
A: Its Potency is inconclusive: 31.6 µM [inhibitor, partial curve].

Q: Which Potency does the source give for `CN(C)c1ncnc2c1NC1=C(S2)C(=NCCCC(=O)O)CC(C)(C)C1` here?
A: Its Potency is inconclusive: 44.7 µM [inhibitor, single point].

Q: How did the Potency turn out when `COc1ccc(-c2cc3ncc(-c4ccccc4)c(N)n3n2)cc1` was run?
A: Its Potency is “inactive”.

Q: For `Cc1cccn(Cc2c(F)cccc2Cl)c1=O`, which Potency is on record?
A: The Potency was “inactive”.

Q: `COc1ccc(/C=N/N2CCN(c3ccccc3OC)CC2)cc1OC` was tested. Which Potency did it give?
A: Its Potency is inconclusive: 31.6 µM [inhibitor, single point].

Q: Which Potency does the source give for `CCn1ncc(/C=C/C(=O)c2ccccc2)c1C` here?
A: The Potency was “inactive”.

Q: With `CC1(C)Cc2ccccc2C(NNC(=O)c2ccccn2)=N1` as the compound, how does the Potency read?
A: The Potency was inconclusive: 15.8 µM [inhibitor, partial curve].

Q: For `Cc1[nH]nc(-c2ccc(O)c(C)c2O)c1-c1cnn(-c2ccccc2)c1`, which Potency is on record?
A: Its Potency is inconclusive: 17.6 µM [inhibitor, partial curve].

Q: For `COc1ccc(S(=O)(=O)Nc2c(NC3CCCCC3)c3ccccc3oc2=O)cc1`, which Potency is on record?
A: The Potency was inconclusive: 17.8 µM [inhibitor, partial curve].

Q: How did the Potency turn out when `c1ccc(-c2ccc3c(c2)NCCN3)cc1` was run?
A: The Potency was active: 8.91 µM.

Q: How did the Potency turn out when `CCOC(=O)CNc1c(-c2ccc(F)cc2)nc2cnccn12` was run?
A: The Potency was active: 12.5 µM.

Q: How did the Potency turn out when `CC(Sc1nc(NCc2ccccc2)nc(N(C)C)n1)C(=O)Nc1ccccc1` (stereo not given) was run?
A: Its Potency is “inactive”.

Q: For `CC(C)n1c(CSCc2ccc(Cl)cc2Cl)n[nH]c1=S`, which Potency is on record?
A: The Potency was inconclusive: 5.62 µM [inhibitor, single point].

Q: With `CC(=O)Oc1cc2oc(=O)cc(C)c2cc1OC(C)=O` as the compound, how does the Potency read?
A: Its Potency is active: 7.88 µM.

Q: Which Potency does the source give for `CCOC(=O)c1c(NC(=S)N2CCN(C)CC2)sc(C)c1-c1ccccc1` here?
A: The Potency was inconclusive: 44.7 µM [inhibitor, single point].

Q: Which Potency does the source give for `O=C(O)c1ccc(N/N=C/C2=Cc3ccccc3OC2)cc1` here?
A: Its Potency is inconclusive: 28.2 µM [inhibitor, partial curve].

Q: `Cc1ccc(-n2c(CNc3cccc(Cl)c3)n[nH]c2=S)cc1` was tested. Which Potency did it give?
A: The Potency was active: 28.2 µM.

Q: Which Potency does the source give for `O=C(NC1=NCCS1)C1Cc2ccccc2CN1C(=O)c1ccccc1` (stereo not given) here?
A: The Potency was active: 3.98 µM.

Q: Which Potency does the source give for `Cc1ccc(C(C[N+](=O)[O-])c2c(C)[nH]n(-c3ccccc3)c2=O)cc1` (stereo not given) here?
A: Its Potency is inconclusive: 39.8 µM [inhibitor, single point].

Q: `O=C(Nc1cccc2ccccc12)NC1CCCc2ccccc21` (stereo not given) was tested. Which Potency did it give?
A: Its Potency is inconclusive: 6.26 µM [inhibitor, single point].

Q: Which Potency does the source give for `COc1ccc2c(C)c(CCC(=O)NCc3ccc(C)cc3)c(=O)oc2c1` here?
A: The Potency was inconclusive: 50.1 µM [inhibitor, single point].

Q: How did the Potency turn out when `COc1ccc(C2CC(=O)N3CN(c4ccc(C)c(Cl)c4)CSC3=C2C#N)cc1` (stereo not given) was run?
A: Its Potency is “inactive”.

Q: How did the Potency turn out when `Fc1ccc(N/N=C/c2ccc(N3CCOCC3)cc2)c(F)c1` was run?
A: The Potency was inconclusive: 28.2 µM [inhibitor, partial curve].

Q: With `Cc1ccc(Cc2ccc(C(=O)NNC(N)=S)o2)cc1` as the compound, how does the Potency read?
A: The Potency was inconclusive: 14 µM [inhibitor, partial curve].

Q: Which Potency does the source give for `CCC(NC(=O)Nc1ccc(O)cc1)(C(F)(F)F)C(F)(F)F` here?
A: Its Potency is inconclusive: 25.1 µM [inhibitor, partial curve].

Q: For `Cc1ccccc1Cn1cc(S(=O)(=O)CC(=O)N2CCCCC2)c2ccccc21`, which Potency is on record?
A: Its Potency is inconclusive: 50.1 µM [inhibitor, single point].

Q: How did the Potency turn out when `Cc1nc2ccccn2c1-c1ccnc(=S)[nH]1` was run?
A: The Potency was inconclusive: 25.1 µM [inhibitor, single point].

Q: Which Potency does the source give for `CCNS(=O)(=O)c1ccc2nc(NC(=O)/C=C/c3cc(OC)c(OC)c(OC)c3)sc2c1` here?
A: Its Potency is inconclusive: 6.26 µM [activator, single point].

Q: Which Potency does the source give for `Cc1nc2ccc(C(=O)O)cc2c2c1CC(C)S2` (stereo not given) here?
A: The Potency was “inactive”.

Q: With `CCOC(=O)C(=O)NCC(c1cccnc1)N1CCN(c2ccccc2)CC1` (stereo not given) as the compound, how does the Potency read?
A: The Potency was inconclusive: 11.2 µM [inhibitor, partial curve].
